# Some of the results follow.
# Tests used:
# Test in all cases: glycan array binding signal (z-score within array); higher = stronger binding
# Conditions in all cases: glycan notation: IUPAC condensed, linker removed
# [1] = target: Fuc(a1-2)[Gal(a1-3)]Gal(b1-3)GlcNAc(b1-6)GalNAc
# Method in brief: (§1)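 From the Consortium for Functional Glycomics database, 3228 arrays were curated, keeping only those whose protein sequence was available. Binding is given as a within-array Z-score averaged across arrays sharing a protein sequence and across linkers. Negative Z-scores can be read as non-binding.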
# [2] = target: Fuc(a1-2)[Gal(a1-3)]Gal(b1-4)Glc
# Method in brief: as §1
# [3] = target: Fuc(a1-2)[Gal(a1-3)]Gal(b1-4)GlcNAc
# Method in brief: as §1
# [4] = target: Fuc(a1-2)[Gal(a1-3)]Gal(b1-4)GlcNAc(b1-2)Man
# Method in brief: as §1
# [5] = target: Fuc(a1-2)[Gal(a1-3)]Gal(b1-4)GlcNAc(b1-2)Man(a1-3)[Fuc(a1-2)[Gal(a1-3)]Gal(b1-4)GlcNAc(b1-2)Man(a1-6)]Man(b1-4)GlcNAc(b1-4)GlcNAc
# Method in brief: as §1
# [6] = target: Fuc(a1-2)[Gal(a1-3)]Gal(b1-4)GlcNAc(b1-2)Man(a1-3)[Fuc(a1-2)[Gal(a1-3)]Gal(b1-4)GlcNAc(b1-2)Man(a1-6)]Man(b1-4)GlcNAc(b1-4)[Fuc(a1-6)]GlcNAc
# Method in brief: as §1
# [7] = target: Fuc(a1-2)[Gal(a1-3)]Gal(b1-4)GlcNAc(b1-3)GalNAc
# Method in brief: as §1
# [8] = target: Fuc(a1-2)[Gal(a1-3)]Gal(b1-4)GlcNAc(b1-3)[Fuc(a1-2)[Gal(a1-3)]Gal(b1-4)GlcNAc(b1-6)]GalNAc
# Method in brief: as §1
# [9] = target: Fuc(a1-2)[Gal(a1-3)]Gal(b1-4)GlcNAc(b1-6)GalNAc
# Method in brief: as §1
# [10] = target: Fuc(a1-2)[Gal(a1-3)]Gal(b1-4)[Fuc(a1-3)]Glc
# Method in brief: as §1
# [11] = target: Fuc(a1-2)[Gal(a1-3)]Gal(b1-4)[Fuc(a1-3)]GlcNAc
# Method in brief: as §1
# [12] = target: Fuc(a1-2)[Gal(a1-3)]Gal(b1-4)[Fuc(a1-3)]GlcNAc(b1-3)GalNAc
# Method in brief: as §1
# [13] = target: Fuc(a1-2)[Gal(a1-4)]Gal(b1-4)GlcNAc
# Method in brief: as §1
# [14] = target: Fuc(a1-2)[GalNAc(a1-3)]Gal
# Method in brief: as §1
# [15] = target: Fuc(a1-2)[GalNAc(a1-3)]Gal(b1-3)GalNAc(a1-3)[Fuc(a1-2)]Gal(b1-4)GlcNAc
# Method in brief: as §1
# [16] = target: Fuc(a1-2)[GalNAc(a1-3)]Gal(b1-3)GalNAc(b1-3)Gal(a1-4)Gal(b1-4)Glc
# Method in brief: as §1
# [17] = target: Fuc(a1-2)[GalNAc(a1-3)]Gal(b1-3)GlcNAc
# Method in brief: as §1
# [18] = target: Fuc(a1-2)[GalNAc(a1-3)]Gal(b1-3)GlcNAc(b1-2)Man(a1-3)[Fuc(a1-2)[GalNAc(a1-3)]Gal(b1-3)GlcNAc(b1-2)Man(a1-6)]Man(b1-4)GlcNAc(b1-4)GlcNAc
# Method in brief: as §1
# [19] = target: Fuc(a1-2)[GalNAc(a1-3)]Gal(b1-3)GlcNAc(b1-2)Man(a1-3)[Fuc(a1-2)[GalNAc(a1-3)]Gal(b1-3)GlcNAc(b1-2)Man(a1-6)]Man(b1-4)GlcNAc(b1-4)[Fuc(a1-6)]GlcNAc
# Method in brief: as §1
# [20] = target: Fuc(a1-2)[GalNAc(a1-3)]Gal(b1-3)GlcNAc(b1-3)GalNAc
# Method in brief: as §1
# [21] = target: Fuc(a1-2)[GalNAc(a1-3)]Gal(b1-3)GlcNAc(b1-6)GalNAc
# Method in brief: as §1
# [22] = target: Fuc(a1-2)[GalNAc(a1-3)]Gal(b1-4)Glc
# Method in brief: as §1
# [23] = target: Fuc(a1-2)[GalNAc(a1-3)]Gal(b1-4)GlcNAc
# Method in brief: as §1
# [24] = target: Fuc(a1-2)[GalNAc(a1-3)]Gal(b1-4)GlcNAc(b1-2)Man
# Method in brief: as §1
# [25] = target: Fuc(a1-2)[GalNAc(a1-3)]Gal(b1-4)GlcNAc(b1-2)Man(a1-3)[Fuc(a1-2)[GalNAc(a1-3)]Gal(b1-4)GlcNAc(b1-2)Man(a1-6)]Man(b1-4)GlcNAc(b1-4)GlcNAc
# Method in brief: as §1
# [26] = target: Fuc(a1-2)[GalNAc(a1-3)]Gal(b1-4)GlcNAc(b1-2)Man(a1-3)[Fuc(a1-2)[GalNAc(a1-3)]Gal(b1-4)GlcNAc(b1-2)Man(a1-6)]Man(b1-4)GlcNAc(b1-4)[Fuc(a1-6)]GlcNAc
# Method in brief: as §1
# [27] = target: Fuc(a1-2)[GalNAc(a1-3)]Gal(b1-4)GlcNAc(b1-2)Man(a1-3)[GalNAc(a1-3)[Fuc(a1-2)]Gal(b1-4)GlcNAc(b1-2)Man(a1-6)]Man(b1-4)GlcNAc(b1-4)GlcNAc
# Method in brief: as §1
# [28] = target: Fuc(a1-2)[GalNAc(a1-3)]Gal(b1-4)GlcNAc(b1-3)Gal(b1-4)GlcNAc
# Method in brief: as §1
# [29] = target: Fuc(a1-2)[GalNAc(a1-3)]Gal(b1-4)GlcNAc(b1-3)Gal(b1-4)GlcNAc(b1-3)Gal(b1-4)GlcNAc
# Method in brief: as §1
# [30] = target: Fuc(a1-2)[GalNAc(a1-3)]Gal(b1-4)GlcNAc(b1-3)GalNAc
# Method in brief: as §1
# [31] = target: Fuc(a1-2)[GalNAc(a1-3)]Gal(b1-4)GlcNAc(b1-3)[Fuc(a1-2)[GalNAc(a1-3)]Gal(b1-4)GlcNAc(b1-6)]GalNAc
# Method in brief: as §1
# [32] = target: Fuc(a1-2)[GalNAc(a1-3)]Gal(b1-4)GlcNAc(b1-6)GalNAc
# Method in brief: as §1
# [33] = target: Fuc(a1-2)[GalNAc(a1-3)]Gal(b1-4)[Fuc(a1-3)]GlcNAc
# Method in brief: as §1
# [34] = target: Fuc(a1-2)[GalNAc(a1-3)]Gal(b1-4)[Fuc(a1-3)]GlcNAc(b1-3)GalNAc
# Method in brief: as §1
# [35] = target: Fuc(a1-2)[GalNAc(a1-4)]Gal(b1-4)GlcNAc
# Method in brief: as §1
# [36] = target: Fuc(a1-2)[GalNAc(b1-3)]Gal
# Method in brief: as §1
# [37] = target: Fuc(a1-3)GlcNAc
# Method in brief: as §1
binder,measurement,setting,value
"LSECtin (Homo sapiens), Q6UXB4 (protein) MDTTRYSKWGGSSEEVPGGPWGRWVHWSRRPLFLALAVLVTTVLWAVILSILLSKASTERAALLDGHDLLRTNASKQTAALGALKEEVGDCHSCCSGTQAQLQTTRAELGEAQAKLMEQESALRELRERVTQGLAEAGRGREDVRTELFRALEAVRLQNNSCEPCPTSWLSFEGSCYFFSVPKTTWAAAQDHCADASAHLVIVGGLDEQGFLTRNTRGRGYWLGLRAVRHLGKVQGYQWVDGVSLSFSHWNQGEPNDAWGRENCVMMLHTGLWNDAPCDSEKDGWICEKRHNC",glycan array binding signal (z-score),[1],-0.131
same,glycan array binding signal (z-score),[2],-0.014
same,glycan array binding signal (z-score),[3],0.029
same,glycan array binding signal (z-score),[4],-0.13
same,glycan array binding signal (z-score),[5],-0.032
same,glycan array binding signal (z-score),[6],-0.116
same,glycan array binding signal (z-score),[7],-0.131
same,glycan array binding signal (z-score),[8],-0.138
same,glycan array binding signal (z-score),[9],-0.124
same,glycan array binding signal (z-score),[10],-0.135
same,glycan array binding signal (z-score),[11],-0.134
same,glycan array binding signal (z-score),[12],-0.132
same,glycan array binding signal (z-score),[13],-0.125
same,glycan array binding signal (z-score),[14],-0.141
same,glycan array binding signal (z-score),[15],-0.119
same,glycan array binding signal (z-score),[16],-0.141
same,glycan array binding signal (z-score),[17],-0.176
same,glycan array binding signal (z-score),[18],0.394
same,glycan array binding signal (z-score),[19],-0.142
same,glycan array binding signal (z-score),[20],-0.133
same,glycan array binding signal (z-score),[21],-0.133
same,glycan array binding signal (z-score),[22],-0.157
same,glycan array binding signal (z-score),[23],-0.198
same,glycan array binding signal (z-score),[24],-0.143
same,glycan array binding signal (z-score),[25],-0.135
same,glycan array binding signal (z-score),[26],-0.131
same,glycan array binding signal (z-score),[27],2.77
same,glycan array binding signal (z-score),[28],-0.098
same,glycan array binding signal (z-score),[29],0.051
same,glycan array binding signal (z-score),[30],-0.128
same,glycan array binding signal (z-score),[31],-0.132
same,glycan array binding signal (z-score),[32],-0.138
same,glycan array binding signal (z-score),[33],-0.13
same,glycan array binding signal (z-score),[34],-0.117
same,glycan array binding signal (z-score),[35],-0.204
same,glycan array binding signal (z-score),[36],-0.218
same,glycan array binding signal (z-score),[37],-0.131

# Source: the supplement of paper PMC8728848
